Results on 82 compounds are retold here after PubChem BioAssay (NCI).

Several values for one entry are separate records, joined by “and”; a condition that tells them apart may be missing. Equal values may be shown once.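 A five-concentration, 48-hour dose response in 96-well plates underlies each endpoint, interpolated linearly between surrounding concentrations. Abbreviation: GI50, concentration required for 50% inhibition of growth. Definition used: TGI = concentration required for complete inhibition of growth.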 Numbered stars: 1 amine (or outer) side, 2 acyl side, 3 side chain; on linkers, the order of the positions; unused ones are H or OH. Bridge positions count the residues as written; N and C are the ends. Square brackets hold non-standard residues; d marks the D form. Peptide text beside a SMILES is read from it. I, II: the chains in the order shown. Actinocin(9to1) = Cc1c2oc3c(C)ccc(C(=O)[*:1])c3nc-2c(C(=O)[*:2])c(N)c1=O; NMeV = CN[CH](C(=O)O)C(C)C; Sar = CNCC(=O)O

This assay relates to NCI-H322M lung. The assay can be described thus: NCI-60 cell line screen, 48 h.
In the case of `CO/N=C(\COc1ccc2c(=O)c3ccccc3oc2c1)c1ccccc1`, the GI50 is 16.8 µM and the TGI is 47.6 µM. Turning to `O=c1c2c([nH]c3nccn13)CCC2`, the TGI was more than 10 µM. In the case of `COc1cc(/C=C/c2ccc(C)cc2)cc(OC)c1OC`, the TGI was 29.2 µM. Same read-out and setting: for `CCOC(=O)NC(=O)c1cn(CCN2CCN(C(=O)CNC(=O)CNC(=O)Cn3cc(C(=O)NC(=O)OCC)c(=O)[nH]c3=O)CC2)c(=O)[nH]c1=O` the value was more than 100 µM.

As for `C(/C=N/NC1=NCCCCN1)=N\NC1=NCCCCN1`, the TGI was more than 100 µM.

Regarding `NC(Cc1ccc(OCc2ccccc2)cc1)C(=O)NC(Cc1ccccc1)C(=O)Oc1c(Cl)c(Cl)c(Cl)c(Cl)c1Cl` (stereo not given), the TGI was 34 µM.

Take `CCCC[C@@H](C)/C=C1\CN2CCC[C@H]2[C@@](C)(OCc2ccccc2)[C@@H]1O`: the TGI was more than 20 µM. As for `CCCn1c2c(c3c(O)cccc31)C(=O)c1ccccc1-2`, the GI50 is 19.2 µM and the TGI is more than 100 µM. Compound `NNC(=O)Nc1nc2ccc(NN)cc2[nH]1` registered a TGI of more than 100 µM. As to `CCOc1ccc2c(-c3ccnc(Nc4cc(OC)cc(C(F)(F)F)c4)n3)cnn2n1`, the GI50 is more than 25 µM and the TGI is more than 25 µM. In turn, `O=C1C2C(C(=O)N1c1ccccc1)C1c3ccccc3C2C2C(=O)N(c3ccccc3)C(=O)C21` (stereo not given) displayed a TGI of more than 100 µM. As for `N#C/C(=C/C=C/c1ccco1)C(N)=O`, the TGI is more than 10 µM. On to `O=C(O)C[C@H](O)C[C@H](O)/C=C/c1c(C2CC2)nc2ccccc2c1-c1ccc(F)cc1`, for which the GI50 is 4.19 µM and 4.06 µM; the TGI was more than 100 µM. On to `Cc1ccc(/C=C/c2c(C(=O)/C=C/c3ccccc3)c(C)nc3ccccc23)cc1`, for which the GI50 is 1.71 µM and the TGI is 3.8 µM.

`NS(=O)(=O)c1nc(S(=O)(=O)O)c2[nH]cnc2n1` displayed a TGI of more than 100 µM.

Compound `O=c1[nH]c(=O)n(C2CC(O)C(CO)O2)cc1Oc1ccccc1` (stereo not given) gave a TGI of more than 100 µM. Compound `CC(C)(C)OC(=O)N/C(C=O)=C\C1CCCCC1` came in with a TGI of 67 µM. `O=C1COc2cc(N3CCN(c4cccc(C(F)(F)F)c4)CC3)ccc2N1`: the TGI was more than 100 µM. Consider `CN(Cc1cnc2nc(N)nc(N)c2n1)c1ccc(C(=O)NC23CC4CC(CC(C4)C2)C3)cc1`, for which the TGI came to 32.3 µM. Same read-out and setting: the figure for `Cc1cc2[nH]c3c(C#N)c(-c4ccccc4)c(N=Nc4ccc(F)cc4)c(=O)n3c2cc1C` is more than 100 µM.

Consider `CCC(=O)N1C/C(=C/c2ccc(Cl)cc2)C(=O)/C(=C/c2ccc(Cl)cc2)C1`, for which the GI50 was 2.11 µM and the TGI amounted to 4.5 µM. `C/C(=C\c1ccn(-c2ccccc2N)n1)[C@@H]1C[C@@H]2O[C@]2(C)CCC[C@H](C)[C@H](O)[C@@H](C)C(=O)C(C)(C)[C@@H](O)CC(=O)O1`: the GI50 is 0.0442 µM and the TGI is more than 50 µM.

`Cn1cnc(N)c(N=O)c1=O` displayed a TGI of more than 10 µM.

For `O=C(O)C(Cc1cnc[nH]1)N1C(=O)c2ccccc2C1=O` (stereo not given), the TGI is more than 100 µM.

With `C[N+]1=c2c3cccc4cccc(c(=O)n2CC1)c43`, the TGI was 33.4 µM.

As to `Cc1ccc(/C=C(\C#N)c2cc3ccccc3n2C)cc1`, the GI50 was 0.694 µM and the TGI was more than 100 µM.

The compound `O=[N+]([O-])c1cccc(/C=N/NC2=CS(=O)(=O)C=C2)c1` came in with a TGI of more than 100 µM. On the same count and under the same terms, for `COC(=O)[C@@H]1CS(=O)(=O)C(C(C)C)N1C(C)=O` (stereo not given in full) the value was more than 100 µM; for `CSC(=S)Nc1cc(C)cc(C)n1`, more than 31.6 µM; for `COC(=O)CCC(NC(=S)N/N=C(\C)c1ccc[nH]1)C(=O)OC` (stereo not given), more than 100 µM.

As for `Cc1ccc2nc3ccccc3c(NCc3ccc(Cl)cc3)c2c1`, the GI50 was 5.46 µM and the TGI came to 11.5 µM. `COc1ccccc1OCC(COC(=O)Nc1ccccc1)OC(=O)Nc1ccccc1` (stereo not given) displayed a TGI of more than 100 µM. On the same count and under the same terms, the figure for `Cc1nc2cc(F)c(F)cc2[nH]c1=O` is more than 100 µM; for `ClC(Cl)=C(Cl)C1(Cl)CC1COCc1ccccc1` (stereo not given) it is more than 100 µM; for `C[C@H]1[C@H](C)N1CC(O)Cn1ccnc1[N+](=O)[O-]` (stereo not given in full) it is more than 100 µM. In turn, `CN1/C(=C/C=C/C=C/C=C2C(=O)c3ccccc3C2=O)C(C)(C)c2ccccc21` gave a TGI of more than 100 µM.

Compound `O[C@@H]1C=C[C@]23CCN(Cc4cc5c(cc42)OCO5)[C@@H]3C1` came in with a TGI of more than 100 µM. The compound `CCO/C=C1\N=C(c2ccc(Cl)c(Cl)c2)OC1=O` yielded a TGI of more than 100 µM. For the compound `CCOC(=O)N1C/C(=C\c2ccccc2)C(=O)/C(=C/c2ccccc2)C1`, the TGI worked out at 55.9 µM.

In the case of `O=C(Oc1cccc(Cl)c1)c1ccccc1Nc1ccnc(C(F)(F)F)c1`, the GI50 is 23.3 µM and the TGI was 66.1 µM. The compound `Cc1cn(C2CCC(CO)(CF)O2)c(=O)[nH]c1=O` (stereo not given) came in with a TGI of more than 100 µM. As to `COc1cc(/C=C2\CC/C(=C\c3cc(OC)c(O)c(OC)c3)C2=O)cc(OC)c1O`, the TGI is more than 100 µM. Consider `CN1CCN(Cc2c[nH]c3c2C(=O)c2c(c(O)c4ccccc4c2O)C3=O)CC1`, for which the GI50 is 8.62 µM and the TGI came to 24 µM. In turn, `O=[N+]([O-])c1ccc(NN=C2CN3CCN(C2)c2ccccc23)c([N+](=O)[O-])c1` displayed a TGI of more than 100 µM. On the same count and under the same terms, for `CCCCc1ccc(Nc2ncc3ncn(COCCO)c3n2)cc1` the value was more than 100 µM; for `CCOC(=O)c1ccc(Nc2nc3ccccc3nc2-c2cccs2)cc1`, more than 100 µM. For the compound `OC1(c2ccccc2)C2CC=CC2C1(c1ccccc1)c1ccccc1` (stereo not given), the TGI is more than 100 µM. Consider `Cc1c(C(=O)c2ccc(N)c3ccccc23)c2ccccc2n1CCN1CCOCC1`, for which the TGI was more than 100 µM.

Regarding `COc1cc2ccc(C(=O)NCCCNC(=O)c3ccc4cc(OC)c(OC)cc4c3)cc2cc1OC`, the TGI is more than 100 µM.

With `O=C(COc1ccc(OCC(=O)N2C(=O)CC(=O)N(c3ccc(Cl)cc3)C2=S)cc1)N1C(=O)CC(=O)N(c2ccc(Cl)cc2)C1=S`, the TGI was 56.3 µM. `NCCCN(CCCCN(CCCN)C(=O)OCc1ccccc1)C(=O)OCc1ccccc1` displayed a TGI of more than 100 µM.

The compound `CCOC(=O)/C(C(N)=O)=C(\O)C(=O)/C(Br)=C(\O)c1ccccc1` displayed a TGI of more than 76.6 µM. Same read-out and setting: for `Cn1nc2ccc(Nc3cc(=O)[nH]c4ccc5nn(C)nc5c34)cc2n1` the value was more than 100 µM; for `FC(F)(F)c1cc(N(C2c3ccccc3C=Cc3ccccc32)P(Cl)Cl)cc(C(F)(F)F)c1`, 74 µM.

The compound `CN(C)Cc1ccc(-c2cc3onc(-c4ccccc4)c3c(=O)n2C)cc1` gave a TGI of more than 100 µM. Take `[N-]=[N+]=NC(c1cn(C2CC(O)C(CO)O2)c(=O)[nH]c1=O)C(Cl)Br` (stereo not given): the TGI was more than 100 µM. Consider `CCC[CH2][Sn]([CH2]CCC)([O]C(=O)c1cc(OC)c(OC)cc1OC)[O][Sn]([CH2]CCC)([CH2]CCC)[O]C(=O)c1cc(OC)c(OC)cc1OC`, for which the GI50 was 1.32 µM and the TGI was determined as 2.61 µM. As to `C=CO/N=[N+](\[O-])N(CC)CC`, the TGI is more than 100 µM. Consider `O=[N+]([O-])/C=C/c1c(Cl)cccc1Cl`, for which the TGI amounted to 30.6 µM.

Regarding `[2H]C([2H])([2H])NC(=O)c1nnc(NC(=O)C2CC2)cc1Nc1cccc(-c2ncn(C)n2)c1OC`, the GI50 was 8.11 µM and the TGI is more than 100 µM.

As to `Cc1c2oc3c(C)ccc(C(=O)NC4C(=O)NC(Cc5ccccc5)C(=O)N5CCCC5C(=O)N(C)CC(=O)N(C)C(C(C)C)C(=O)OC4C)c3nc-2c(C(=O)NC2C(=O)NC(Cc3ccccc3)C(=O)N3CCCC3C(=O)N(C)CC(=O)N(C)C(C(C)C)C(=O)OC2C)c(N)c1=O` (stereo not given) (I: TFP[Sar][NMeV] / II: TFP[Sar][NMeV]; ester I:1-I:C, II:1-II:C; linker I:N-II:N via Actinocin(9to1); configuration not given here), the TGI was 0.071 µM. Regarding `OCCCCC#Cc1ccccc1C#Cc1ccc(O)cc1`, the GI50 was 13.7 µM and the TGI stood at 28.3 µM. Compound `C[C@@H]1[C@@H](C)C(c2ccccc2)O[Si]1(C(C)(C)C)C(C)(C)C` (stereo not given in full) returned a TGI of 30.8 µM.

`C=CC(=O)N1C/C(=C\c2ccc(Cl)c(Cl)c2)C(=O)/C(=C/c2ccc(Cl)c(Cl)c2)C1` displayed a TGI of 0.829 µM. `Cc1cccc2c(N)c3cccc(C(=O)NCC[N+](C)(C)Cc4ccc([N+](=O)[O-])s4)c3nc12` displayed a TGI of 48.5 µM. With `C=C1C(=O)O[C@H]2[C@H]1CC/C(COC(=O)CCCCCC(=O)OC/C1=C/CC[C@@]3(C)O[C@H]3[C@H]3OC(=O)C(=C)[C@@H]3CC1)=C\CC[C@@]1(C)O[C@@H]21`, the GI50 is 6.99 µM and the TGI came to 20 µM. `COC(=O)[C@H](Cc1c[nH]c2ccccc12)NP(=O)(OCCC#N)OCC1OC(n2cc(C)c(=O)[nH]c2=O)CC1N=[N+]=[N-]` (stereo not given in full) had a TGI of more than 100 µM. `O=c1c2cc(C(F)(F)F)ccc2sc2c(NCCCNCCO)nc3ccccc3c12`: the GI50 is 1.53 µM and the TGI came to 2.89 µM. With `COc1ccc2c(c1)[n+](=O)c(C(=O)c1cccs1)c(C(F)(F)F)n2[O-]`, the GI50 was 2.13 µM and the TGI worked out at 15.1 µM. On to `Cc1cc(S(=O)(=O)Nc2nc3ncccc3[nH]2)c(S)cc1Cl`, for which the TGI is more than 100 µM. As for `N#Cc1nc(-c2ccc(F)cc2)oc1S(=O)(=O)N1CCCCC1`, the GI50 was 14.5 µM and the TGI turned out to be 27.6 µM. On the same counts, the results for `CCCCC(SC(=S)N1CCCC1)C(=O)Nc1nc(CC(=O)OCC)cs1` (stereo not given) are more than 100 µM and more than 100 µM. The compound `Clc1sc(Cl)c2c1[C@@H](Cl)C[C@@H]2Cl` displayed a TGI of more than 100 µM. Still for that read-out and setting: the figure for `ClC(Cl)(Cl)C1CCOC1n1nnc2ccccc21` (stereo not given) is more than 100 µM.

Take `O=[N+]([O-])c1cc[n+]([O-])c2ccccc12`: the GI50 is 0.104 µM and the TGI stood at 0.405 µM. For `COc1cc2c(cc1OC)-c1ncc3c(OC)ccc(OC)c3c1C2`, the GI50 is 13.1 µM and the TGI worked out at 41.3 µM. For the compound `O=C(/C=C(\O)C(=O)O)/C=C(\O)c1ccccc1`, the GI50 was more than 1 µM and the TGI is more than 100 µM. In turn, `Cc1cc(-n2nnc(C(=O)O)c2-c2ccccc2)c2ccc(Cl)cc2n1` gave a TGI of more than 100 µM. The same measure, in the same setting: for `COc1ccccc1-n1c(=O)n(C)c(=O)n1C(C)(C)C` the value was more than 100 µM; for `O=c1cc(-c2ccccn2)[nH]c2cccc(F)c12`, more than 100 µM; for `O=c1[nH]nc(-c2ccccc2)n1/N=C/c1ccc([N+](=O)[O-])o1`, 27.4 µM. For `COc1cc(-c2nc3ccccc3s2)ccc1OCCCCOc1cc2c(cc1OC)C(=O)N1CCC[C@H]1C=N2`, the GI50 was 3.01 µM and the TGI is 10.6 µM.
